Experimental data as given in the GPR68 mutational scans of Howard et al. (2025).
Scores with a large standard error are left out. Two further conditions of the source, in which the scores hardly spread, are not listed. Names with del lack the residues named; names with ins carry added residues between the positions named. For part of these data: The concentration of ogerin is not given here.

B1: GPR68, Q15743 (parent)
chain: MGNITADNSSMSCTIDHTIHQTLAPVVYVTVLVVGFPANCLSLYFGYLQIKARNELGVYLCNLTVADLFYICSLPFWLQYVLQHDNWSHGDLSCQVCGILLYENIYISVGFLCCISVDRYLAVAHPFRFHQFRTLKAAVGVSVVIWAKELLTSIYFLMHEEVIEDENQHRVCFEHYPIQAWQRAINYYRFLVGFLFPICLLLASYQGILRAVRRSHGTQKSRKDQIQRLVLSTVVIFLACFLPYHVLLLVRSVWEASCDFAKGVFNAYHFSLLLTSFNCVADPVLYCFVSETTHRDLARLRGACLAFLTCSRTGRAREAYPLGAPEASGKSGAQGEEPELLTKLHPAFQTPNSPGSGGFPTGRLA

Experiments:
[1] = variants of: B1; test: cAMP reporter score (Enrich2 score, wild type = 0); higher = more signal; HEK293T, FACS bins
[2] = variants of: B1; test: surface expression score (Enrich2 score, wild type = 0); higher = more signal; HEK293T, FACS bins

Variant	cAMP reporter score ([1]; pH 5.5)	cAMP reporter score ([1]; pH 6)	cAMP reporter score ([1]; pH 6, modulator: ogerin)	surface expression score [2]	cAMP reporter score ([1]; pH 6.5, modulator: ogerin)
MGNITADNSSMSCTIDHTIHQTLAPVVYVTVLVVGFPANCLSLYFGYLQIKARNELGVYLCNLTVADLFYICSLPFWLQYVLQHDNWSHGDLSCQVCGILLYENIYISVGFLCCISVDRYLAVAHPFRFHQFRTLKAAVGVSVVIWAKELLTSIYFLMHEEVIEDENQHRVCFEHYPIQAWQRAINYYRFLVGFLFPICLLLASYQGILRAVRRSHGTQKSRKDQIQRLVLSTVVIFLACFLPYHVLLLVRKVWEASCDFAKGVFNAYHFSLLLTSFNCVADPVLYCFVSETTHRDLARLRGACLAFLTCSRTGRAREAYPLGAPEASGKSGAQGEEPELLTKLHPAFQTPNSPGSGGFPTGRLA [S252K]	0.03	0.155	-0.485	-2.35	–
MGNITADNSSMSCTIDHTIHQTLAPVVYVTVLVVGFPANCLSLYFGYLQIKARNELGVYLCNLTVADLFYICSLPFWLQYVLQHDNWSHGDLSCQVCGILLYENIYISVGFLCCISVDRYLAVAHPFRFHQFRTLKAAVGVSVVIWAKELLTSIYFLMHEEVIEDENQHRVCFEHYPIQAWQRAINYYRFLVGFLFPICLLLASYQGILRAVRRSHGTQKSRKDQIQRLVLSTVVIFLACFLPYHVLLLVRLVWEASCDFAKGVFNAYHFSLLLTSFNCVADPVLYCFVSETTHRDLARLRGACLAFLTCSRTGRAREAYPLGAPEASGKSGAQGEEPELLTKLHPAFQTPNSPGSGGFPTGRLA [S252L]	-1.17	-1.35	-0.799	-0.003	-0.759
MGNITADNSSMSCTIDHTIHQTLAPVVYVTVLVVGFPANCLSLYFGYLQIKARNELGVYLCNLTVADLFYICSLPFWLQYVLQHDNWSHGDLSCQVCGILLYENIYISVGFLCCISVDRYLAVAHPFRFHQFRTLKAAVGVSVVIWAKELLTSIYFLMHEEVIEDENQHRVCFEHYPIQAWQRAINYYRFLVGFLFPICLLLASYQGILRAVRRSHGTQKSRKDQIQRLVLSTVVIFLACFLPYHVLLLVRMVWEASCDFAKGVFNAYHFSLLLTSFNCVADPVLYCFVSETTHRDLARLRGACLAFLTCSRTGRAREAYPLGAPEASGKSGAQGEEPELLTKLHPAFQTPNSPGSGGFPTGRLA [S252M]	-0.791	-1.28	-1.81	-0.54	–
MGNITADNSSMSCTIDHTIHQTLAPVVYVTVLVVGFPANCLSLYFGYLQIKARNELGVYLCNLTVADLFYICSLPFWLQYVLQHDNWSHGDLSCQVCGILLYENIYISVGFLCCISVDRYLAVAHPFRFHQFRTLKAAVGVSVVIWAKELLTSIYFLMHEEVIEDENQHRVCFEHYPIQAWQRAINYYRFLVGFLFPICLLLASYQGILRAVRRSHGTQKSRKDQIQRLVLSTVVIFLACFLPYHVLLLVRIVWEASCDFAKGVFNAYHFSLLLTSFNCVADPVLYCFVSETTHRDLARLRGACLAFLTCSRTGRAREAYPLGAPEASGKSGAQGEEPELLTKLHPAFQTPNSPGSGGFPTGRLA [S252I]	0.293	-0.763	0.013	-0.305	-0.461
